Binding signal (log2 normalized intensity) data for 73 sequences are collected here from publication PMC10726135.

Some of the results follow. At the low end of the ranking the order means little. Measured with an extract: partners may take part in the binding.

In this experiment the target is T1, HNF4alpha8 (COS-7 nuclear extract) (UniProt P41235-5).
T1 sequence: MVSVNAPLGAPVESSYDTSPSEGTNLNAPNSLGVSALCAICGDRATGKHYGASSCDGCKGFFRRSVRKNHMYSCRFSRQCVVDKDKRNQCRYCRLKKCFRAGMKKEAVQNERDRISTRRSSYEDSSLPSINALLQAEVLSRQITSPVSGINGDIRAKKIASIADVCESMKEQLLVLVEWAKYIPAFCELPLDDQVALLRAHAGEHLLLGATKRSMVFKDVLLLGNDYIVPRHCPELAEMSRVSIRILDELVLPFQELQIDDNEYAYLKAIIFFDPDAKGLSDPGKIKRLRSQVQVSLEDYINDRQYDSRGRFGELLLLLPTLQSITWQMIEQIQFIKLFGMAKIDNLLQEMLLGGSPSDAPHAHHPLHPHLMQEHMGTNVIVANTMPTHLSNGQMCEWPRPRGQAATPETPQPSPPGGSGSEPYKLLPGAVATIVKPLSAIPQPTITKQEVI
Put plainly: protein-binding microarray. Particulars: COS-7 nuclear extract on double-stranded Agilent 4x180k PBM; binding buffer, salt, pH and temperature not given; high values mean tight binding; double strand, one strand shown; sequences stand for … in …GCCTAGGGAGATTAGAGTATCGGTCGA
Turning to CTCTTACAACGAGGTGCCAGAAACCTGACT, the binding signal (log2 normalized intensity) is -1.22. In the case of TATCATACTCAGCTAATCTAGAGACACTAT, the binding signal (log2 normalized intensity) is -1.41. Turning to CTGTGGATAGCTCAGGGATTAACGACTCAT, the binding signal (log2 normalized intensity) was -1.24. The value for CAGTACTGAAACATGCCTATGACCGAGGGT was 0.281; that for GTTAAAGTCCGTTACAGACAGGCAGCCCCT was 0.205; that for AAGGCCACAGCTCAGATCACAAAAGATGGA was -1.34. Consider ATGACAAAGGTGAGAGAGCATCCAGATAAA, for which the binding signal (log2 normalized intensity) was -1.19. The value for CCCCAAAGGCTCTCTGTTGACCACCTGCCC was 2.43; that for CTCCGCTAAGTGGCTCGACAACGATTTGGG was -1.18. For GGAGTCAAGCAAACACACTTGCTCTAATCC, the binding signal (log2 normalized intensity) is -1.28.

For the sequence GTAAATTCTTGAGCAGTCACTGGGAGATAT, the binding signal (log2 normalized intensity) is -1.15. ATGACTCCAAAGTTCAAACTCTGAAAGCAC: the binding signal (log2 normalized intensity) turned out to be 3.38. The value for GACACTGCTCTCTCCAGGGGAGGGTGACCA was -0.232; that for TAACACCAGATAAACAGAAGAAAGGGGCTA was -1.43; that for GAAGCCACAGAAGTCTTTCCCTGCCAGTTC was -1.26.

As to GTCTGACAGATAAGATTTGGAAAATATTGC, the binding signal (log2 normalized intensity) was -1.06. With CAGAGCACAGCAGGGCAGGGTATGCCTGAC, the binding signal (log2 normalized intensity) is -1.39.

Take GAGGGGATTGATGGAATTCCACTGACTGCT: the binding signal (log2 normalized intensity) was -1.35. The figure for ACCCCCAACTTCCCCAACCCTTGCACTGCT is 3.95; for AGATTTGAATATGTACATGGACTTTGAACC it is 10.6; for CTCTCCCAGTGGAATGCAAATATAGAAATA it is -0.275. The figure for CGGGTTCTGCGCAGGGAGGAGCGCATCGGG is -1.28; for AAAGGTCTGAGAACCAAGAGAGCCATTGGT it is -1.35. For the sequence AGGGGAAAAAGGACTCTGGGAAGATTAAGG, the binding signal (log2 normalized intensity) is -1.33. The figure for GTGAGCCACCACGCCCGGCCAAAGACCACA is -1.28; for TGAGAGAGCATCCAGATAAAGCTGAAGAAA it is -1.01; for AGCAATTTAGCAGCACCATCCTACAGGGTA it is -1.3. The figure for TGATAGTCTGCTACCATCAGATAAGCTCAG is -1.3; for TAGAATCTGCAGCCCCTTTTGGAATCCCCA it is 4.23. The value for AAAGTTTCACTTTCTCTTATAGCTCAACCC was 0.389. Take GGCCTGCATGACTACATTCTTTGAAGACTA: the binding signal (log2 normalized intensity) was -1.25. The value for GTGGGTGCCAAACAAAAAGGGCAAAGGTCA was 8.84; that for AGGTGCTGCCTTGGAGGTGAGGGTTACAGG was 0.123. The value for CTGGTGTGAGGTCAGTTGATAAACAGATAA was 0.649; that for TGGTGTAAGCACTTGTGGTATGTTTGGATT was 2.29; that for AGCACGGCCAGGATTAACCACAGAAATGCC was -1.36. The value for GGAGGGGTAAGGGTGGGGGTGGGGAGGATA was -1.31; that for AGCCTTATCAGTATCAATGAGATCTCCCCA was 2.25. In the case of GCAAGTAGAGCTGCTTACATTTTGCTCTGT, the binding signal (log2 normalized intensity) was 0.196. The value for TGTAACTGTAACTATATTGACCACCTCCTC was 1.35; that for GAGTCTTAGGGAGGGGCCAGGACAAAGGTC was 6.64; that for TGAGTTATTGGAAGAATGGAATTGCCATTG was 0.79. The figure for GGGGACCTTTGGCCTTTACCTGTTACTTAT is 4.06; for TGTCACCCAGCCAGAATTCTCCCTGCAGTC it is -1.44; for GCGCCAGGCTGGGGGCAGAGTTCACCCCAT it is 4.31.

As for CTCAAGCTTCAGGAGTCCACTGTGTTCTTG, the binding signal (log2 normalized intensity) was 2.05. The value for TGAAATTTGGCCTGCTGAGCCCAATCTAGC was -1.31; that for AGATAGTGACGGAGGTGACCTTTGGTTGTC was 6.24. With GCAAGTCGAGCAAGGTTCAGCACATTTATG, the binding signal (log2 normalized intensity) worked out at 0.657. As for GCGCGGGCAGGTTGCCCTTTCGGTGGGACT, the binding signal (log2 normalized intensity) is 2.96. Regarding TGAGACGCAAGCATATCTCTAGATCTCAGT, the binding signal (log2 normalized intensity) was -1.21.

Take CCTCCCCCCTTCTGTTTCCAGAAATCTGAC: the binding signal (log2 normalized intensity) is 2.58. For the sequence ATGTTCCTTATCAGAGAGGCCTCACAGCCT, the binding signal (log2 normalized intensity) is -1.37.

ACATTCCAGGACCTTTGCTCATGTCCTCTT: the binding signal (log2 normalized intensity) was found to be 3.3. The figure for TCATAAAGAACAGTTATTCTTAGCTTTCCT is -0.77; for CTCCACCTACGCTACGCACCAGGCATACTC it is -1.3; for TCCCATCCCCAGAGCCCCCTTGATGCATCA it is 4.78. AGATAACAAACTTGATTGGGTATCAAGGGT: the binding signal (log2 normalized intensity) was -0.598. The value for CTGCAAAGAAGTCAAACTTTGGACCCACTG was 6.61; that for TCGAGCAAGGTTCAGCACATTTATGAGGCC was 0.054; that for ATGGTGGCCATTCTGATTTGATAAGATGTG was 0.328. The value for ACAAAACCTGTTTAGGATTAAACAAACAAG was -1.27. The figure for AACCAGATGGCCCTCTCCAAGGCGGTGTGG is -1.38; for TTCTGCACCTGCCCTCAGGGAGCTCCAGCA it is -1.18. For GAAAGACCTTTTCCCTCCCTCCCAGTACAA, the binding signal (log2 normalized intensity) came out at 3.87. The value for ACTTCAAAGCGCAGCGCGGGGCTCAAAGGC was -1.24; that for TTCCTGCTCATGCAGCTGCTGCCCAAAGGT was -1.37.

On to TGTTCAAGACCAAAGGTCATGGCAACAGTT, for which the binding signal (log2 normalized intensity) was determined as 4.96.

For CACACCCCTGGGGAAGGCAGGTCTCTCTCA, the binding signal (log2 normalized intensity) was -1.38. The value for TGCAGCCGAACCGGCACGGTTTCGTGGGGA was -1.28. The figure for GACAGATCAGAGAGATTTTCACATGGAATG is -0.886; for TAGGGCCTTGCTATGGAGTGGACTTTGGCT it is 7.22; for CTTTGTTAAAGCATATTTATTCAGGCCCAC it is 0.298.
